The campaign covered roughly 310,000 compounds. About 14,000 (4.5%) showed an effect of 50% or more. Effects have a minus sign here. This is one part of the list.
Molecular target: human ether-à-go-go-related gene (hERG) potassium channel (human, UniProt Q12809)
Experiment: primary screen, population patch clamp on CHO cells stably expressing hERG
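Also: peak tail current of the secondary pulse compared with the same well before compound.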

human ether-à-go-go-related gene (hERG) potassium channel, sequence (Q12809 whole entry, looked up): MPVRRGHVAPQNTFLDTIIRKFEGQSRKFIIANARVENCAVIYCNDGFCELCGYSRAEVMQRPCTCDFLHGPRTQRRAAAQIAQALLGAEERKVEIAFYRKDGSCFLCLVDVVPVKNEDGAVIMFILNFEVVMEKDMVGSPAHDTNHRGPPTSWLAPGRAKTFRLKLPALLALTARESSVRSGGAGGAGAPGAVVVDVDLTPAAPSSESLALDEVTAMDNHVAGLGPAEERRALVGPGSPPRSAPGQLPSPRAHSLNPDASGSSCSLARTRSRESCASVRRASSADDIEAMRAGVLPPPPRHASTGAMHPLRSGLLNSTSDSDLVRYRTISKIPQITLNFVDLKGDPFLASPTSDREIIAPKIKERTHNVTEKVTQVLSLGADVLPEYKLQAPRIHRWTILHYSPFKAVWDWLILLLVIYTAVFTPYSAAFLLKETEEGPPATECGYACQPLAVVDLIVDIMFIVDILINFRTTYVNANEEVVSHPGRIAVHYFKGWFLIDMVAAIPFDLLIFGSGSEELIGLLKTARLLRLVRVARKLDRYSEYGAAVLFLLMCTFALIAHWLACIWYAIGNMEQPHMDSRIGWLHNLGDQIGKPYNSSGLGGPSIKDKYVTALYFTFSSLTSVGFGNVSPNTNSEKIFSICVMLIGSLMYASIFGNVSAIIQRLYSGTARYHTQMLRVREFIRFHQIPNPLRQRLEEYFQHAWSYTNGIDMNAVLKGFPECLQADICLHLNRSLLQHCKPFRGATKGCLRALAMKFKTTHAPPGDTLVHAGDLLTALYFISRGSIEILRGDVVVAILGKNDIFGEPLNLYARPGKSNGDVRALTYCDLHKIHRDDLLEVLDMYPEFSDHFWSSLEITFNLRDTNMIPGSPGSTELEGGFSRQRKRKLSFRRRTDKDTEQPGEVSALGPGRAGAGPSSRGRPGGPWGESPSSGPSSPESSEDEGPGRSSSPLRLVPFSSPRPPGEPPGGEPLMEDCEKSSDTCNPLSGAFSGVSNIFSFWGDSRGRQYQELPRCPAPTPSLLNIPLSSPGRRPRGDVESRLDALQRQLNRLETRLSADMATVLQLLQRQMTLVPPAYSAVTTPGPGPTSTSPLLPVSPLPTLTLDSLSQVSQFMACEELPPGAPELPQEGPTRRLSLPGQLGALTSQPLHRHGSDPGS

Row | Compound | hERG current change (%, negative = inhibition) at 10uM
1 | COc1cc(-c2nnc(SCC#CCO)o2)cc(OC)c1OC | -11.8%
2 | COc1cccc2cc(C(=O)N3CCCCCCC3)c(=O)oc12 | 9.34%
3 | COc1ccccc1N(C)S(=O)(=O)c1ccc(C(=O)NC2=NCCS2)cc1 | -11.4%
4 | O=C(O)CC1S/C(=N\N=C/c2ccccc2)N(c2ccc(O)cc2)C1=O (centres unmarked) | 13.4%
5 | O=C(CCC(=O)NNC(=O)Nc1ccc(Cl)cc1)NCc1ccccc1 | 21.6%
6 | Cc1ccc(N(Cc2ccc(C(=O)NCC3CCCO3)cc2)S(C)(=O)=O)cc1C (centres unmarked) | -1.05%
7 | O=C(CC1C(=O)NCCN1C(=O)Nc1ccccc1)Nc1ccc2c(c1)OCO2 (centres unmarked) | 6.09%
8 | CN(C1CCCCC1)S(=O)(=O)c1ccc(-c2ccccn2)s1 | -15.6%
9 | Cc1nn(S(=O)(=O)c2ccc([N+](=O)[O-])cc2)c(C)c1Sc1ccccc1 | -2.78%
10 | OC(CN1CCNCC1)Cn1ccc2ccccc21 (centres unmarked) | -16.2%
11 | CCOC(=O)N1CCN(C(=O)c2ccccc2NC(=O)c2ccc(F)cc2)CC1 | 15.4%
12 | CN(CC(=O)N1CCCC1)S(=O)(=O)c1cc(Cl)ccc1Cl | -16%
13 | CCn1c(-c2ccccc2Cl)nn(CC(=O)Nc2cc(Cl)ccc2Cl)c1=S | -23.3%
14 | Cc1c(NS(=O)(=O)c2cccc([N+](=O)[O-])c2)c(=O)n(-c2ccccc2)n1C | 17.1%
15 | COc1ccccc1C(=O)C1CCCN(C(=O)c2cc(CC(C)C)nc(C)n2)C1 (centres unmarked) | -60.5%
16 | COc1ccc([N+](=O)[O-])cc1NC(=O)COC(=O)c1ccccc1O | 38.8%
17 | O=C(NC1CCCCC1)c1ccccc1NC(=O)C1CC(=O)N(c2ccc(Cl)cc2)C1 (centres unmarked) | 2.36%
18 | O=C(NCc1ccco1)c1ccc(CN2CCOCC2)cc1 | 9.35%
19 | O=C(Cn1ccc2ccccc2c1=O)N1CCN(c2cccc(Cl)c2)CC1 | 5.24%
20 | O=S1(=O)CCOCCCN1Cc1ccc(Cl)cc1 | 2.2%
21 | CCN(CC(=O)Nc1c(F)cccc1F)C(=O)CSc1nnc(-c2ccco2)n1CC | 18.3%
22 | COc1ccc(C2C(C#N)=C(N)Oc3n[nH]c(C)c32)cc1Cn1nc(C)c([N+](=O)[O-])c1C (centres unmarked) | -36.1%

Row | Compound | hERG current change (%, negative = inhibition) at 10uM
23 | COc1ccc(-c2nc(-c3ccccc3)nc(N3CCN(C)CC3)c2C#N)cc1 | -1.17%
24 | COCCCNC(=O)c1ccc(CN2CCc3ccccc3C2)cc1 | 12.5%
25 | Cc1cccc(NC(=O)CCc2nc3sc4c(c3c(=O)[nH]2)CCCC4)c1 | 10.8%
26 | O=C(Nc1cccc(Br)c1)c1ccc(Cl)c(S(=O)(=O)N2CCOCC2)c1 | -0.264%
27 | COc1ccc(Sc2nc(-c3ccccn3)ncc2OC)cc1 | -18.7%
28 | Cc1cc(C)c(NC(=O)NC(=O)c2cccc(F)c2)c(C)n1 | 2.64%
29 | Cc1ccc(N)c(C(O)(C(F)(F)F)C(F)(F)F)c1 | -4.88%
30 | COc1cc(/C=C/C(=O)N2CCN(c3n[nH]c(=O)[nH]c3=O)CC2)cc(OC)c1OC | 3.54%
31 | CCOC(=O)CN(C(=O)COc1nc(C)cc(C)c1C#N)c1cccc(Cl)c1 | 4.06%
32 | CCOC(=O)N1CCN(S(=O)(=O)c2ccc3[nH]c(=O)oc3c2)CC1 | -1.83%
33 | O=C(C(Cc1ccccc1)NS(=O)(=O)c1cccc2cccnc12)N1CCc2ccccc21 (centres unmarked) | -13.4%
34 | CCC(C)c1ccc(OCCn2cc(/C=N/NC(=O)CSc3nnc(C)s3)c3ccccc32)cc1 (centres unmarked) | 18.3%
35 | Cc1cccc(-n2c(C)cc(C=C(C#N)C#N)c2C)c1 | 3.91%
36 | Cc1cc2nccc(-c3ccc(Cl)c([N+](=O)[O-])c3)n2n1 | 16.5%
37 | CC(C)c1ccc(COc2ccc(C(=O)N3CCOCC3)cc2)cc1 | -9.13%
38 | COC(C[C@@H]1O[C@@H]1[C@H](O)COCc1ccccc1)OC | -1.9%
39 | COC(=O)C1=C(c2ccc(OC)c(OC)c2)C[C@@H]2CC[C@H]1N2C(=O)N1CCC(C)CC1 | 5.39%
40 | COc1ccc(-c2cc(C(F)(F)F)n3nc(C(=O)NCCN4CCOCC4)cc3n2)cc1 | 8.84%
41 | Cc1cc(C)nc(/N=C(\N)Nc2ccc(C(C)C)cc2)n1 | -67.5%
42 | O=C(NCC(=O)N(c1cccnc1)C(C(=O)NC1CCCCC1)c1ccccc1F)c1ccco1 (centres unmarked) | 16%
43 | Cc1cc(C)c(C)c(S(=O)(=O)Nc2ccc(C(=O)N3CCCC3)cc2)c1C | 2.91%
44 | N=C1/C(=C\c2ccc(SCc3ccccc3)o2)C(=O)N=C2SC(CC(=O)N3CCOCC3)=NN12 | 3%

— paper PMC4336329 (PLoS ONE, 2015)
